# From PubChem BioAssay (NCATS)
# “And” between values parts separate entries of the source, which are not always exact repeats. Equal values may be shown once. Inconclusive means that the source gave no clear call. Such entries were picked first, then a sample of the others. For some assays here: A potency beside an inconclusive call is a rough fit, not a confirmed value. For some assays here: A note “side channel” means that the fit belongs to a control or component signal, not to the main read-out. Where a structure was tested more than once in an assay, its records may differ in their call. The source made the active and inactive calls. Unless noted, calls follow the shape of the dose curve; as a rule, active = well fitted curve in the direction sought with a large enough effect; inconclusive = small, poorly fitted or top-dose-only effect, or another doubt; inactive = no such curve, though single readings can be large; an effect the other way counts as inactive or inconclusive.
# Experiments:
# [1] = NFAT Signaling Pathway (AID 444; active = well fitted curve in either direction with a large enough effect, not every such curve was filed as active; inconclusive = small, poorly fitted or top-dose-only effect, or another doubt;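 also: carbachol stimulus at about its EC50 of 1 µM final; % is scaled to controls: 0 for no effect and ±100 for the full control effect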); conditions: Jurkat NFAT-bla M1, carbachol, beta-lactamase ratio, 5 h; at 17.2 µM (top of the series)
# How it was run: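 Jurkat cells carrying an NFAT-driven β-lactamase reporter and co-transfected muscarinic M1 receptor were treated with compound plus carbachol (1 uM final, an EC50 level) for 5 h at 37 °C. CCF4 loading followed for 1 h at RT; 460/530 nm ratio gave %activity.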
# [2] = qHTS Assay for Identification of Small Molecule Antagonists for NFkB Signaling Pathway (AID 895; active = well fitted inhibition curve with a large enough effect in the signal ratio, with a control signal flat, not every such curve was filed as active; inconclusive = small, poorly fitted or top-dose-only effect, or effect the other way, or a change in a side signal; the % refers to the signal ratio; also: % is scaled to controls: 0 for no effect and ±100 for the full control effect); conditions: NFkB beta-lactamase reporter cells, FRET ratio 460/530, stimulated with 10 pM TNF alpha; activity change, negative = inhibition: at 38.3 µM (top of the series)
# How it was run: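 NFkB-bla ME-180 cervical carcinoma cells with beta-lactamase reporter under NFkB response element; compounds added, then TNF alpha at 10 pM final (EC50), 5 h at 37 C. LiveBLAzer substrate 2 h, room temperature; emission 460/530 nm at 405 nm excitation.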
# [3] = qHTS Assay for Identification of Small Molecule Antagonists for Thrombopoietin (TPO) Signaling Pathway (AID 918); conditions: TPO-dependent cell signaling reporter, antagonist mode; activity change, negative = inhibition: at 38.5 µM (top of the series); also: nearly all actives have a fitted effect of over 60% in size
# How it was run: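 Antagonist mode at EC50 TPO (26 pM) in IL-3-free medium; murine Ba/F3 cells with human TPO receptor and GPIIb-promoter luciferase, 24 hrs at 37 C before luminescent detection.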
# [4] = molecular target: Muscarinic acetylcholine receptor M1 (Rattus norvegicus) (UniProt P08482); experiment: qHTS Assay for Antagonists of Acetylcholine Muscarinic M1 Receptor: Kinetic Measurement of Intracellular Calcium Response (AID 943); also: potency is read from the fitted curve at half-maximal effect; nearly all actives have a fitted effect of over 75% in size
# How it was run: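 Quantitative HTS in CHO-M1 (rat receptor) cells: 10 min compound exposure ahead of 100 nM carbachol, Fluo-4 fluorescence followed 4 min, value expressed as peak-to-basal ratio.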
# [5] = molecular target: Muscarinic acetylcholine receptor M1 (Rattus norvegicus) (UniProt P08482); experiment: qHTS Assay for Antagonists of Acetylcholine Muscarinic M1 Receptor: Measurement of IP-One Response (AID 944); also: nearly all actives have a fitted effect of over 75% in size
# [6] = molecular target: DNA repair nuclease/redox regulator APEX1 (Homo sapiens) (UniProt P27695); experiment: qHTS Validation Assay for Inhibitors of the Human Apurinic/apyrimidinic Endonuclease 1 (APE1) (AID 1705; also: potency is read from the fitted curve at half-maximal effect)
# How it was run: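 Substrate: 50 nM final fluorophore/quencher THF-abasic duplex. Enzyme preincubated with compounds 15 min, RT. Progress derived from fluorescence difference, third minus first kinetic read.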
# [7] = molecular target: Endonuclease 4 (Escherichia coli (strain K12)) (UniProt P0A6C1); experiment: Counterscreen for APE1 Inhibitors: qHTS Validation Assay for Inhibitors of Endonuclease IV (AID 1708); also: % is scaled to controls: 0 for no effect and ±100 for the full control effect
# How it was run: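 Measured as reaction progress, the fluorescence gain between first and third kinetic reads after adding 50 nM TAMRA/BHQ-2 THF duplex to 2 nM enzyme preincubated 15 min with compound; 2 mM MgCl2, pH 7.5.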
# [8] = qHTS for differential inhibitors of proliferation of Plasmodium falciparum line 3D7 (AID 1876); also: potency is read from the fitted curve at half-maximal effect
# [9] = qHTS for differential inhibitors of proliferation of Plasmodium falciparum line Dd2 (AID 1882); conditions: Potency: Plasmodium falciparum Dd2 proliferation inhibition;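 also: plate controls were DMSO vehicle for no effect and 0.29 µM artemisinin for full effect; nearly all actives have a fitted effect of over 65% in size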
# How it was run: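 RBC culture, 0.3% parasitemia / 2.5% Hct final; cpd added by pin tool in DMSO; 72 h, 37 C, 5% CO2; lysis buffer + SYBR Green I, o/n RT dark; FI 485/535; norm. to artemisinin 0.29 uM and DMSO.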
# [10] = qHTS for differential inhibitors of proliferation of Plasmodium falciparum line W2 (AID 1883); conditions: Potency: Plasmodium falciparum W2 proliferation inhibition;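 also: potency is read from the fitted curve at half-maximal effect; parasites grown with compound for 72 h before lysis and staining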
# [11] = molecular target: RecQ-like DNA helicase BLM (Homo sapiens) (UniProt P54132); experiment: qHTS Validation Assay for Inhibitors of Bloom's syndrome helicase (BLM) (AID 2364);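 also: plate controls were DMSO vehicle for no effect and enzyme-free control for full effect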
# How it was run: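 BLM 50 nM in 25 mM Tris-HCl pH 8.0, 5 mM NaCl, 2 mM MgCl2, 1 mM DTT, 0.01% Tween-20, 2.5 ug/ml poly(dI-dC); 15 min cpd preinc, RT. Start: 200 nM forked DNA + 2 mM ATP (final). TAMRA read, 2 reads 2 h apart.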
# [12] = molecular target: ATP-dependent 6-phosphofructokinase (Trypanosoma brucei brucei) (UniProt O15648); experiment: qHTS Validation Assay to Find Inhibitors of T. brucei phosphofructokinase (AID 485368); conditions: activity change, negative = inhibition: at 57.5 µM (top of the series)
# How it was run: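 qHTS format, up to 57 uM. PFK 1.25 nM; F6P 0.5 mM; ATP 0.1 mM; 5 mM MgCl2, 0.01% Tween20, 0.1% BSA; 0.1 M TEA pH 8.0; 45 min RT; ADP-Glo readout; no-enzyme control = full inhibition.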
# [13] = molecular target: Thioredoxin reductase 1, cytoplasmic (Rattus norvegicus) (UniProt O89049); experiment: qHTS Assay for Inhibitors of Mammalian Selenoprotein Thioredoxin Reductase 1 (TrxR1) (AID 488773); conditions: Potency: inhibition; also: potency is read from the fitted curve at half-maximal effect; nearly all actives have a fitted effect of over 40% in size
# How it was run: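 Inhibition is scored from the loss of NADPH fluorescence between first and last reads of an 8-min kinetic run. Selenite (400 uM) was the substrate, added after 15 min compound preincubation at room temperature.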
# [14] = molecular target: Chromobox protein homolog 1 (Homo sapiens) (UniProt P83916); experiment: qHTS Validation Assay for Inhibitors of HP1-beta Chromodomain Interactions with Methylated Histone Tails (AID 488953);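 also: loss of AlphaScreen luminescence from HP1-beta binding biotinylated H3K9me3 peptide; % is scaled to controls: 0 for no effect and ±100 for the full control effect; nearly all actives have a fitted effect of over 50% in size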
# How it was run: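 Compounds pinned into a preassembled complex of HP1-beta and trimethyl-K9 histone H3(1-18) biotin peptide (50 nM each; PBS pH 7.4, 0.01% Tween-20). After 30 min, bead-based AlphaScreen detection followed.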
# [15] = molecular target: ATPase family AAA domain-containing protein 5 (Homo sapiens) (UniProt Q96QE3); experiment: Validation screen for small molecules that inhibit ELG1-dependent DNA repair in human embryonic kidney (HEK293T) cells expressing luciferase-tagged ELG1 (AID 493107); conditions: HEK293T ELG1-luciferase level, luminescence, 5-fluorouridine co-treatment, 16 h; activity change, negative = decrease: at 46.1 µM (top of the series); also: potency is read from the fitted curve at half-maximal effect; nearly all actives have a fitted effect of over 70% in size
# How it was run: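 Compounds reducing 5-fluorouridine-driven ELG1-luciferase signal in HEK293T cells were scored; exposure lasted 16 hr at 37 °C with luminescence detected via ONE-Glo.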
# [16] = molecular target: Tyrosine-protein phosphatase non-receptor type substrate 1 (Homo sapiens) + Leukocyte surface antigen CD47 (Homo sapiens) (UniProt P78324+Q08722); experiment: CD47-SIRPalpha protein protein interaction - HTRF assay qHTS validation (AID 1347058; active = well fitted curve in the direction sought with a large enough effect in the signal ratio, not every such curve was filed as active; inconclusive = small, poorly fitted or top-dose-only effect, or effect the other way, or a change in a side signal; inactive = no such curve, though single readings can be large or run the other way; the % refers to the signal ratio; also: potency is read from the fitted curve at half-maximal effect)
# How it was run: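 Soluble extracellular domains (6His-CD47, Avi-tag-biotinylated SIRPalpha) in PBS pH 7.4 with 0.05% IGEPAL CA-630. Compounds were preincubated 30 min at RT with CD47 and anti-His-Eu, then SIRPalpha and SAV-XL665 were added. TR-FRET 665/615 ratio.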
# [17] = molecular target: Phospholipid hydroperoxide glutathione peroxidase GPX4 (Homo sapiens) (UniProt P36969); experiment: Primary qHTS Assay for Inhibitors of Recombinant Selenoprotein Glutathione Peroxidase 4 (GPX4) (AID 1845192); conditions: activity change, negative = inhibition: at 50 µM (top of the series) unless noted; also: potency is read from the fitted curve at half-maximal effect; nearly all actives have a fitted effect of over 65% in size
# How it was run: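 qHTS, GR-coupled: GPX4 200 nM + cpd 30 min RT → GSH 1 mM, NADPH 0.5 mM, GR 100 nM → CHP 0.5 mM start; fluor 340/450 at t0 and t15 min; no-enzyme wells as control.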
# [18] = qHTS for Inhibitors of Plasmodium falciparum (DD2) proliferation (AID 504314); also: potency is read from the fitted curve at half-maximal effect
# How it was run: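 SYBR Green DNA-fluorescence growth assay: infected RBCs at 0.3% parasitemia, 2.5% hematocrit, 72 h compound exposure, 37C, 5% CO2; overnight lysis with dye at RT; normalized to 0.29 uM artemisinin and vehicle.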
# [19] = qHTS for Inhibitors of Plasmodium falciparum (GB4) proliferation (AID 504315); also: nearly all actives have a fitted effect of over 50% in size; also: potency is read from the fitted curve at half-maximal effect;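 as to activity change, negative = inhibition: 0% = DMSO vehicle and -100% = 0.29 µM artemisinin control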; conditions: P. falciparum GB4 in erythrocytes, SYBR Green DNA, 72 h; activity change, negative = inhibition: at 6.7 µM (top of the series)
# How it was run: (§1)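 Parasite growth measured as SYBR Green DNA fluorescence (ex 485, em 535 nm) after overnight lysis following 72 h culture at 37 °C, 0.3% parasitemia, 2.5% hematocrit. Values normalized against DMSO and 0.29 uM artemisinin controls, with plate-stack correction.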
# [20] = qHTS for Inhibitors of Plasmodium falciparum (7G8) proliferation (AID 504316); also: potency is read from the fitted curve at half-maximal effect; nearly all actives have a fitted effect of over 65% in size; conditions: P. falciparum 7G8 in erythrocytes, SYBR Green DNA, 72 h; activity change, negative = inhibition: at 6.7 µM (top of the series)
# How it was run: as §1
# [21] = qHTS for Inhibitors of Plasmodium falciparum (HB3) proliferation (AID 504318); also: potency is read from the fitted curve at half-maximal effect; nearly all actives have a fitted effect of over 60% in size; conditions: P. falciparum HB3 in erythrocytes, SYBR Green DNA, 72 h; activity change, negative = inhibition: at 7.21 µM (top of the series)
# How it was run: as §1
# [22] = molecular target: Rap guanine nucleotide exchange factor 4 (Homo sapiens) (UniProt Q8WZA2); experiment: Confirmatory qHTS for antagonist of cAMP-regulated guanine nucleotide exchange factor 4 (EPAC2) (AID 1645885); also: potency is read from the fitted curve at half-maximal effect; nearly all actives have a fitted effect of over 25% in size
# [23] = Primary qHTS for inhibitors of nuclear receptor binding SET domain protein 2 (NSD2) in an RCH-ACV wild type WT cells (2C) (AID 1645877); conditions: activity change, negative = cell killing: at 44.9 µM (top of the series) unless noted; also: potency is read from the fitted curve at half-maximal effect; nearly all actives have a fitted effect of over 70% in size
# [24] = Primary qHTS for inhibitors of nuclear receptor binding SET domain protein 2 (NSD2) in an isogenic RCH-ACV NSD2 p.E1099K mutant (9B) (AID 1645876); conditions: activity change, negative = viability loss: at 44.9 µM (top of the series) unless noted; also: % is scaled to controls: 0 for no effect and ±100 for the full control effect; nearly all actives have a fitted effect of over 70% in size
# Tags tell the direction and shape of the fitted curve.
# Chain of UniProt P36969 (P36969 whole entry, looked up): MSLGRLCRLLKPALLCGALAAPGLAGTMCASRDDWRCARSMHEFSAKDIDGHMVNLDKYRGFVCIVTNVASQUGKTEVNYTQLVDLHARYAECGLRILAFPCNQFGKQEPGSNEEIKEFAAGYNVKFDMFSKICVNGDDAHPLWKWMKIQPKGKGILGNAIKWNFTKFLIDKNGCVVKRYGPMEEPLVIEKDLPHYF
# Chain of UniProt P08482 (P08482 whole entry, looked up): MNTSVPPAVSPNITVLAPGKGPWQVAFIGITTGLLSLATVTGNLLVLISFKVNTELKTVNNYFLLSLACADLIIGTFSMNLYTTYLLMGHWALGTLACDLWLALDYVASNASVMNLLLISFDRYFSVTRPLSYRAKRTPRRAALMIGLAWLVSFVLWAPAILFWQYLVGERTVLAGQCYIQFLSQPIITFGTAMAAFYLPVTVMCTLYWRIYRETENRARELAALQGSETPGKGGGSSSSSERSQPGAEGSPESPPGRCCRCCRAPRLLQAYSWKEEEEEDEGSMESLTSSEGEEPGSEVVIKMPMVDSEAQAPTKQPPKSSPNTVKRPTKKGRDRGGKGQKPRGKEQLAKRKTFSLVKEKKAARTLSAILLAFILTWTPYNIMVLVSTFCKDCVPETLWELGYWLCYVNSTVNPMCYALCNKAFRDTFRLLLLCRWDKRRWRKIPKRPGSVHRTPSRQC
# Chain of UniProt P54132 (P54132 whole entry, looked up): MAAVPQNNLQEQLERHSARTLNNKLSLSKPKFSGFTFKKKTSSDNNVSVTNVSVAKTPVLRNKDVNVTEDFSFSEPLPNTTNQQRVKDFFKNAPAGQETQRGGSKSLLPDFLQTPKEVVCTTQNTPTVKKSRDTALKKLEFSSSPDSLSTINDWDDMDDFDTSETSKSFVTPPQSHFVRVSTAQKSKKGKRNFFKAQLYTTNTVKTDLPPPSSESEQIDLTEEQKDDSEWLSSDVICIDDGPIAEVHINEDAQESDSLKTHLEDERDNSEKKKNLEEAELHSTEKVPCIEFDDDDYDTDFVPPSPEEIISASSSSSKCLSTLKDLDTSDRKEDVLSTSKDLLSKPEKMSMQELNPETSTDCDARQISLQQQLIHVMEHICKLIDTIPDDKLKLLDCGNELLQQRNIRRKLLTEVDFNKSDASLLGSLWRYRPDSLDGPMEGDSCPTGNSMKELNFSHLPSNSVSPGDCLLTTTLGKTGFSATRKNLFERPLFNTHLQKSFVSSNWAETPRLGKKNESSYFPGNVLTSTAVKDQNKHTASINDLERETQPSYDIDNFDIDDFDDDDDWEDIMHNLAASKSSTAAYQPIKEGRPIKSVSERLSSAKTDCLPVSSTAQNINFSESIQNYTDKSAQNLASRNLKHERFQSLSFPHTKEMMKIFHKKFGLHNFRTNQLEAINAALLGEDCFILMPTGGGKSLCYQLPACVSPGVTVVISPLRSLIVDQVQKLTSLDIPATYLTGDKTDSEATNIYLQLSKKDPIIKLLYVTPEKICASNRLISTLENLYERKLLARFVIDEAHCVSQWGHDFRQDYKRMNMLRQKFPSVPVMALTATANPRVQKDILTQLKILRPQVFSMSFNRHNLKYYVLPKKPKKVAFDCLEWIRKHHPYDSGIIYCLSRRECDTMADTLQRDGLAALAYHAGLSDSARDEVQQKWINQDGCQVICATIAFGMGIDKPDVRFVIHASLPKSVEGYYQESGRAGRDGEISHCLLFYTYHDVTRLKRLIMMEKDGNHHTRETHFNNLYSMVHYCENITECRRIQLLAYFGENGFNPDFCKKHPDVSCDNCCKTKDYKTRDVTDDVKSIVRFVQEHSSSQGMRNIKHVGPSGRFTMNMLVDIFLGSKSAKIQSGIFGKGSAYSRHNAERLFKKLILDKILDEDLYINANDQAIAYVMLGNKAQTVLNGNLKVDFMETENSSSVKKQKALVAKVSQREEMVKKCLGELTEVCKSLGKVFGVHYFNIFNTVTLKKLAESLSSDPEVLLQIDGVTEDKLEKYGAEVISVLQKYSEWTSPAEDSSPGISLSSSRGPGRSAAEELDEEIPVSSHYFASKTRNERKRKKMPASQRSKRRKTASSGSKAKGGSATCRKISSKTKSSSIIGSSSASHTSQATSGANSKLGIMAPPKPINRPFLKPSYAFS
# Chain of UniProt Q8WZA2 (Q8WZA2 whole entry, looked up, the tested form may be a part): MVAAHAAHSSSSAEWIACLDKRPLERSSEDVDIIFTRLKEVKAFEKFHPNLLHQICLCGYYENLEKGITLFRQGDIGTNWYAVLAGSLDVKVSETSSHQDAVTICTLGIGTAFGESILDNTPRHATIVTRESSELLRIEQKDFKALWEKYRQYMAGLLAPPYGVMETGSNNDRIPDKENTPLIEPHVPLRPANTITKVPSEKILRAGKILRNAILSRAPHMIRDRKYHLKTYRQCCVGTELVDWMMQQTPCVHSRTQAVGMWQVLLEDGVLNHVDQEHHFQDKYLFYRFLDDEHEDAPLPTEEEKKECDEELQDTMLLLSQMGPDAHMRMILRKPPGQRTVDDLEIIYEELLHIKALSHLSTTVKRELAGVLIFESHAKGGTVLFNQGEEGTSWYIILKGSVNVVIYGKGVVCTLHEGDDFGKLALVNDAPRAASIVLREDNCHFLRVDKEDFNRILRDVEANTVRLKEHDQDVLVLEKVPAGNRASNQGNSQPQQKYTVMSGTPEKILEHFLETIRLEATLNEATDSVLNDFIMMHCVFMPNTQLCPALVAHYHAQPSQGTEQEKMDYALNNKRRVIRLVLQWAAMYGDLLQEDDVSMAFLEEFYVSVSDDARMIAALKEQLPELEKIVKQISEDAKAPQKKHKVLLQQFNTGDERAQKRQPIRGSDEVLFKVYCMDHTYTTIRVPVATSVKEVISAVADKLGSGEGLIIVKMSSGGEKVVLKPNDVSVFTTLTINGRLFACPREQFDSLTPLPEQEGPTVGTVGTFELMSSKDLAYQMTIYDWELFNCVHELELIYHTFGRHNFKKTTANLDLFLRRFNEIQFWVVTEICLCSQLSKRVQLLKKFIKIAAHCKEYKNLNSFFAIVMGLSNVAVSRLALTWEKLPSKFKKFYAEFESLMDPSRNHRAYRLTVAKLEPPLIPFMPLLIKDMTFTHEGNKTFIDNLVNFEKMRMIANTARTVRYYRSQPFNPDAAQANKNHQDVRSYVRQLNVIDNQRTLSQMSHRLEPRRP
# Chain of UniProt P27695 (P27695 whole entry, looked up): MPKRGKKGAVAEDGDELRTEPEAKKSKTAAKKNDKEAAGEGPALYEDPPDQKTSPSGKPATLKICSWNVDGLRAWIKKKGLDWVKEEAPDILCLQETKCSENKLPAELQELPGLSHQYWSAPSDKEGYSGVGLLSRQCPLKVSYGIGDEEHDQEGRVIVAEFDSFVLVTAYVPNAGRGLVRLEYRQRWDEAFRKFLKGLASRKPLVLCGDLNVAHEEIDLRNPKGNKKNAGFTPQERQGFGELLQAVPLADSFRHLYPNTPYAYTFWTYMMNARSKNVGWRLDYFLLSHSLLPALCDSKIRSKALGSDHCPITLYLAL
# Chain of UniProt O89049 (O89049 whole entry, looked up): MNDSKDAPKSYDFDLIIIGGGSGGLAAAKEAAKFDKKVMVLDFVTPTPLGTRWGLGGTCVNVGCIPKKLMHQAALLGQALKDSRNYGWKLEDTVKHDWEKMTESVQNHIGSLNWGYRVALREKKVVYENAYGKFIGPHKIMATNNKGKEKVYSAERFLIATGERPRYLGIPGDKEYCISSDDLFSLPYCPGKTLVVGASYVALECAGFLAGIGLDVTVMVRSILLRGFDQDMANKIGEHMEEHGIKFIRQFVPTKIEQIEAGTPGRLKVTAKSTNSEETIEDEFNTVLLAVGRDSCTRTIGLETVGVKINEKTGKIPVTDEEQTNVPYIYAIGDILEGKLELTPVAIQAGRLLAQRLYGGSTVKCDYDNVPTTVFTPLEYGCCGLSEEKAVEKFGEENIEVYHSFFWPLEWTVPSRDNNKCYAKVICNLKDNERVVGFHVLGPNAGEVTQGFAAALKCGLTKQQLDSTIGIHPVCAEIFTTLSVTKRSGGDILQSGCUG
# Chain of UniProt P78324 (P78324 whole entry, looked up, the tested form may be a part): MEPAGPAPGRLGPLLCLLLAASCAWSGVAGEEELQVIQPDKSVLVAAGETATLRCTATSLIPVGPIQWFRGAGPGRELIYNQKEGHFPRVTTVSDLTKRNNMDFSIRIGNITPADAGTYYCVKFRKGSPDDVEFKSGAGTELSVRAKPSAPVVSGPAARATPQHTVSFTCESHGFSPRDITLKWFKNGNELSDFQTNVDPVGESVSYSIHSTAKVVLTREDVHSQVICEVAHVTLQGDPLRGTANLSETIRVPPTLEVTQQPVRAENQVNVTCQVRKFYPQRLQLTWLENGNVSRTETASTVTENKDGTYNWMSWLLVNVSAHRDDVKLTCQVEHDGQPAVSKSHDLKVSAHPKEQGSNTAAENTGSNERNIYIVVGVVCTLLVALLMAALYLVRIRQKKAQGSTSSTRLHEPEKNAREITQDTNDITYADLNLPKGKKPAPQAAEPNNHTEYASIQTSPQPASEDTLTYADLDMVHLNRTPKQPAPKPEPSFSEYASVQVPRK
# Chain of UniProt P78324 (Q08722 whole entry, looked up, the tested form may be a part): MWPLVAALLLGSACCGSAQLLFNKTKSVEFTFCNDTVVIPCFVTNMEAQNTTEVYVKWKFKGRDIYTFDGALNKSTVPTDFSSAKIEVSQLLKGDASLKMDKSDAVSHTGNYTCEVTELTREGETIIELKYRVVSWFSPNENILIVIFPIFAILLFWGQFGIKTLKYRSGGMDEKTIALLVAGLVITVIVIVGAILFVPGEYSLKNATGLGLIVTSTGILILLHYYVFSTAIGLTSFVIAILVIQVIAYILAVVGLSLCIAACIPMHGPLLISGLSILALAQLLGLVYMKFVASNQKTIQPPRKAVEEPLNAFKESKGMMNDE
# Chain of UniProt P83916 (P83916 whole entry, looked up): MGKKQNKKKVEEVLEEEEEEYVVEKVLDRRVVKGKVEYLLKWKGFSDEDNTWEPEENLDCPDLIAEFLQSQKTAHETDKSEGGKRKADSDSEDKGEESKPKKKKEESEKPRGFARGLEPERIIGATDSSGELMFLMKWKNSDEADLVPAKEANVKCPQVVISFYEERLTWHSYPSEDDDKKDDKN
compound,measurement,setting,value
N=c1c[n+](N2CCOCC2)[n-]o1,"activity change, negative = inhibition",[1],inconclusive: -34.5% [inhibitor]
same,Potency,[2],inactive
same,"activity change, negative = inhibition",[3],inconclusive: -12.7% [phenotype inactive]
same,Potency,[4],"inconclusive: 0.0794 µM [inhibitor, full curve, poor fit]"
same,Potency,[5],inactive
same,Potency,[6],"inconclusive: 39.8 µM [inhibitor, single point]"
same,Potency,[7],inactive
same,Potency,[8],"inconclusive: 15.8 µM [inhibitor, single point]"
same,Potency,[9],inactive
same,Potency,[10],"inconclusive: 7.94 µM [inhibitor, partial curve, poor fit]"
same,Potency,[11],inactive
same,Potency,[12],inactive
same,Potency,[13],"inconclusive: 42.3 µM [inhibitor, partial curve]"
same,Potency,[14],inactive
same,Potency,[15],"inconclusive: 29.1 µM [activator, partial curve]"
same,Potency,[16],"inconclusive: 16.5 µM [side channel, falling, single point]"
CSCC[C@H](NC(=O)[C@H](Cc1ccc(OS(=O)(=O)O)cc1)NC(=O)[C@@H](N)CC(=O)O)C(=O)NCC(=O)N[C@@H](Cc1c[nH]c2ccccc12)C(=O)N[C@@H](CCSC)C(=O)N[C@@H](CC(=O)O)C(=O)N[C@@H](Cc1ccccc1)C(N)=O,Potency,[17],active: 15.8 µM
COc1cc2c(cc1OC)[C@@H]1O[C@](c3ccsc3)(C2)Oc2cc(-c3ccccc3)oc(=O)c21,Potency,[18],"inconclusive: 1.69 µM [inhibitor, partial curve]"
same,Potency,[19],"inconclusive: 1.51 µM [inhibitor, partial curve] and inactive"
same,Potency,[20],active: 1.9 µM
same,Potency,[21],"inconclusive: 1.9 µM [inhibitor, single point] and inconclusive: 2.33 µM [inhibitor, single point]"
CCCCc1nc2c(c3c1C[C@H](C)OC3)CN(C(=O)c1cc(I)ccc1F)CC2,Potency,[18],"inconclusive: 4.24 µM [inhibitor, single point]"
same,Potency,[19],"inactive and inconclusive: 4.26 µM [inhibitor, single point]"
same,Potency,[20],"inconclusive: 1.51 µM [inhibitor, single point] and inconclusive: 1.07 µM [inhibitor, partial curve]"
same,Potency,[21],"inconclusive: 4.26 µM [inhibitor, single point] and inconclusive: 2.69 µM [inhibitor, partial curve, poor fit]"
CCOC(=O)Oc1c(OC)cc(C(=O)O[C@@H]2C[C@@H]3CN4CCc5c([nH]c6cc(OC)ccc56)[C@H]4C[C@@H]3[C@H](C(=O)OC)[C@H]2OC)cc1OC,Potency,[22],"inconclusive: 23.3 µM [inhibitor, partial curve, poor fit]"
same,Potency,[17],active: 15.8 µM
C=CCN(/C=C1\C(=O)OC(COC)C2(C)C1=C(O)C(=O)C1=C2C(OC(C)=O)CC2(C)C(=O)CCC12)CC=C (centres undefined),Potency,[23],active: 11.6 µM
Cc1ccc(C)c(S(=O)(=O)n2cnc3ccccc32)c1,Potency,[24],inactive
